{
  "source": "PubChem BioAssay AID1508624",
  "about": "(National Center for Advancing Translational Sciences (NCATS), 2021)",
  "note": "Out of some 48,000 compounds screened, about 120 (0.25%) were called active. Inconclusive results (about 4%) are left out. The call rests on the fitted dose curve; in most records, active means well fitted activation curve with a large enough effect; inconclusive means small, poorly fitted or top-dose-only effect, or another doubt; inactive means no such curve, though single readings can be large or run the other way. The list shows a part of the results, in another mix than the full data. Where no call is shown, the source filed none. Potency means the concentration at half of the fitted maximal effect.",
  "data": [
    {"assay": "Primary qHTS for Identification of Small Molecule Activators of Huntingtin-Antisense Promoter Activity; further: nearly all actives have a fitted effect of over 55% in size", "conditions": "HEK293 HTT-AS promoter firefly luciferase reporter, 24 h; activity change, positive = activation: at 57.5 µM (top of the series), percent change from vehicle, -100% = no light", "source_text": "Assay Provider: Russell L. Margolis M.D.\nDepartment Neurology, Johns Hopkins University School of Medicine, Baltimore, MD\nHuntington's Disease (HD) is a neurodegenerative disorder caused by a CAG repeat expansion in exon 1 of huntingtin (HTT). While there are currently no disease-modifying treatments for HD, recent efforts have focused on development of nucleotide-based therapeutics to lower HTT expression. As an alternative to siRNA or oligonucleotide methods, we hypothesized that suppression of HTT expression might be accomplished by small molecules that either (1) directly decrease HTT expression by suppressing HTT promoter activity or (2) indirectly decrease HTT expression by increasing the promoter activity of HTT-AS, the gene antisense to HTT that appears to inhibit expression of HTT.\nWe developed and employed a high throughput screen for modifiers of HTT and HTT-AS promoter activity using luminescent reporter HEK293 cells; of the 52,041 compounds tested, we identified 898 replicable hits. We used a rigorous stepwise approach to assess compound toxicity and the capacity of the compounds to specifically lower huntingtin protein in 5 different cell lines, including HEK293 cells, HD lymphoblastoid cells, mouse primary neurons, HD iPSCs differentiated into cortical-like neurons, and HD hESCs. We found no compounds which were able to lower huntingtin without lowering cell viability in all assays, though the potential efficacy of a few compounds at non-toxic doses could not be excluded.\nSEQUENCE No. (1, 2, 3, etc.); […] (e.g., Cells, Incubation, Reagent, etc.); VALUE and DESCRIPTION.\n1; Reagent; 4 uL; 2,500 Hek293 luciferase reporter cells per wells\n3; Compound; 23 nL; Control inhibitor / compound library\n5; Reagent; 2.5 uL; Firefly Luc reagent; Dual-Glo Luciferase Reporter Assay System (Promega)\n6; Time; 10 min; room temperature incubation\n7; Detection; Luminescence; FLuc\nNOTES (numbers refer to sequence above)\n1; High-throughput screening, measuring luminescence from a Hek293 luciferase reporter, was performed in 1,536 well white-walled tissue-culture treated plates. 2,500 cells were plated in 4 µL of Opti-MEM per well using a Multidrop Combi Reagent Dispenser (ThermoFisher).\n2; Assay plates were cultured for 24 hours.\n3; Control inhibitor (PTC124; final concentration of 50 uM) and compound library (at final concentrations of 460 nM - 57.5 uM) were added to the assay plate using the Kalypsis Pintool Robotic System equipped with 1536 pinheads.\n4; Cells were then incubated for 24 hours at 37 degrees C prior to luminescence measurements.\n5; In all cases, luminescence was measured using the Dual-Glo Luciferase Reporter Assay System (Promega) following the manufacturer's instructions.\n6; Room temperature incubation.\n7; Luminescence signal was obtained using the PerkinElmer ViewLux plate reader. Results were normalized to vehicle control (0% activity) and zero RLU (-100% activity).", "values": [
      {"smiles": "O=S(=O)(Nc1ccc(-c2ccc(N3CCCC3)nn2)cc1)c1ccccc1Cl", "activity change, positive = activation": "-0.493%"},
      {"smiles": "COc1cc(OC)c(NC(=O)Nc2sc3nc4n(c(=O)c3c2C)CCC(C)CC4)cc1Cl", "note": "(stereo unspecified)", "activity change, positive = activation": "1.21%"},
      {"smiles": "CCc1ccc(OCC(=O)Nc2ccc(Cl)c(-c3nc4cc(C)cc(C)c4o3)c2)cc1", "activity change, positive = activation": "-0.151%"},
      {"smiles": "Cc1nn(-c2ccc(N3CCCC3)nn2)c(C)c1CCC(=O)NCc1ccc(F)cc1", "activity change, positive = activation": "2.86%"},
      {"smiles": "CC(=O)c1ccc(NC(=O)/C=C/c2ccc(C)o2)cc1", "activity change, positive = activation": "57.3%"},
      {"smiles": "Cc1ccc(OCCn2c(-c3ccc(Br)cc3)nc3ccccc3c2=O)cc1C", "activity change, positive = activation": "23.3%"},
      {"smiles": "CCOc1ccc(NC(=O)CC2C(=O)N(c3ccccc3)C(=O)N2Cc2cccc(OC)c2)cc1", "note": "(stereo unspecified)", "activity change, positive = activation": "27.8%"},
      {"smiles": "COc1ccc(S(=O)(=O)Nc2cc3c(cc2N2CCOCC2)n(C)c(=O)n3C)cc1", "activity change, positive = activation": "-2.36%"},
      {"smiles": "CCc1c(C)c2ccc(O)c(CN3CCN(c4ccc(OC)cc4)CC3)c2oc1=O", "activity change, positive = activation": "-9.47%"},
      {"smiles": "Cc1ccc(-c2nnc(Nc3ccc(OCC(N)=O)cc3)c3ccccc23)cc1S(=O)(=O)N(C)C", "activity change, positive = activation": "-35%"},
      {"smiles": "Fc1ccc(C(Nc2ccccc2Cl)c2nnc(-c3ccccc3Cl)o2)cc1", "note": "(stereo unspecified)", "activity change, positive = activation": "-5.11%"},
      {"smiles": "Cc1ccc(NC(=O)c2c(C)oc3ccc(O)c(CN4CCCC4)c23)c(C)c1", "activity change, positive = activation": "-6.19%"},
      {"smiles": "CCc1ccccc1NS(=O)(=O)c1ccc2oc(=O)c3ncn(C)c3c2c1", "activity change, positive = activation": "-8.31%"},
      {"smiles": "COc1ccccc1OCCCSc1nc(-c2ccc(C(C)(C)C)cc2)nc2cc(=O)[nH]n12", "activity change, positive = activation": "-9.71%"},
      {"smiles": "Cc1ccc(Cl)cc1NS(=O)(=O)c1ccc2oc(=O)c3ncn(C)c3c2c1", "activity change, positive = activation": "-10.4%"},
      {"smiles": "Cc1oc2ccc(O)c(CN3CCCC3)c2c1C(=O)Nc1ccccc1", "activity change, positive = activation": "-5.82%"},
      {"smiles": "CC(C)N=C(N)/N=C(\\N)Nc1ccc(Cl)cc1", "activity change, positive = activation": "inactive: -8.47%"},
      {"smiles": "COCCOC(=O)C1=C(C)NC2=C(C(=O)CC(c3ccccc3OC)C2)C1c1cccc(O)c1", "note": "(stereo unspecified)", "activity change, positive = activation": "inactive: -9.15%"},
      {"smiles": "CC1Cc2cc(S(=O)(=O)NCCc3ccc(Cl)cc3)ccc2N1C(=O)C1CCC1", "note": "(stereo unspecified)", "activity change, positive = activation": "-23.3%"},
      {"smiles": "Fc1ccc(-n2ncc3c(NCCCn4ccnc4)ncnc32)cc1", "Potency": "active: 2.82 µM"},
      {"smiles": "CC1Cc2cc(S(=O)(=O)CCC(=O)NCc3ccc(Cl)cc3)ccc2N1C(=O)C1CC1", "note": "(stereo unspecified)", "activity change, positive = activation": "-7.23%"},
      {"smiles": "COCCOC(=O)C1=C(C)NC(=O)NC1c1cn(-c2ccccc2)nc1-c1ccccc1", "note": "(stereo unspecified)", "activity change, positive = activation": "-2.52%"},
      {"smiles": "O=C(CN1CCN(Cc2ccccc2F)C1=O)NCc1ccccc1", "activity change, positive = activation": "inactive: -10.6%"},
      {"smiles": "CCOc1ccc(CNC(=O)c2cc3ccccn3n2)cc1", "activity change, positive = activation": "54.2%"},
      {"smiles": "CCCC(=O)Nc1ccc2oc(-c3ccc(O)c(Br)c3)nc2c1", "activity change, positive = activation": "99.8%"},
      {"smiles": "Cc1cc(Nc2cccc(Cl)c2)nc2ccc(NC(=O)COc3ccc(Cl)cc3)cc12", "activity change, positive = activation": "inactive: -5.81%"},
      {"smiles": "COc1ccc(C)cc1NS(=O)(=O)c1ccc2oc(=O)c3ncn(C)c3c2c1", "activity change, positive = activation": "-6.96%"},
      {"smiles": "O=C(NCCSCc1ccccc1)C1CCN(S(=O)(=O)Cc2ccccc2)CC1", "activity change, positive = activation": "0.671%"},
      {"smiles": "CCc1ccc(CCOc2ccc(CC3SC(=O)NC3=O)cc2)nc1", "note": "(stereo unspecified)", "Potency": "inactive"},
      {"smiles": "COc1ccc(NC(=O)Nc2cc(C(=O)NCc3ccc(C)cc3)ccc2N2CCCC2)cc1", "activity change, positive = activation": "inactive: 6.46%"},
      {"smiles": "CCc1ccc(NC(=O)CC2C(=O)N(c3ccc(F)cc3)C(=O)N2Cc2ccc(F)cc2)cc1", "note": "(stereo unspecified)", "activity change, positive = activation": "-18.4%"},
      {"smiles": "COc1cc(OC)c2c(C)c(CC(=O)NCc3ccccc3OC)c(=O)oc2c1", "activity change, positive = activation": "8.28%"},
      {"smiles": "O=S(=O)(Nc1cccc(-c2ccc(N3CCOCC3)nn2)c1)c1ccc(F)c(C(F)(F)F)c1", "activity change, positive = activation": "20%"},
      {"smiles": "COc1ccccc1N1CCN(C(=O)COc2ccccc2C#N)CC1", "activity change, positive = activation": "-6.25%"},
      {"smiles": "COc1cc(OC)c2c(C)c(CC(=O)N3CCCCC3)c(=O)oc2c1", "activity change, positive = activation": "6.37%"},
      {"smiles": "Cc1cc(=O)n2c(C(=O)Nc3ccc(C)c(C)c3)c(C(=O)Nc3ccccc3)sc2n1", "activity change, positive = activation": "-17.1%"},
      {"smiles": "O=C(CSc1nc(-c2ccco2)nc2cc(=O)[nH]n12)Nc1ccccc1Cl", "activity change, positive = activation": "-9.48%"},
      {"smiles": "COc1ccc(Cl)cc1NC(=O)c1c(C(=O)Nc2cccc(C)c2C)sc2nc(C)cc(=O)n12", "activity change, positive = activation": "-8.35%"},
      {"smiles": "COc1ccc(CNS(=O)(=O)c2cc(C(=O)Nc3cc(Cl)cc(Cl)c3)ccc2F)cc1", "activity change, positive = activation": "inactive: -31%"},
      {"smiles": "CCc1nn(-c2ccccc2)c2nc(-c3ccccc3OC)c3cc(OC)c(OC)cc3c12", "activity change, positive = activation": "-18.1%"},
      {"smiles": "COc1cc(-c2nnc(SCCOc3ccc(Cl)cc3C)o2)cc(OC)c1OC", "activity change, positive = activation": "-4.92%"},
      {"smiles": "Cc1ccc(Cl)c2c1N[C@@H](c1ccc(C(=O)O)cc1)[C@H]1CC=C[C@@H]21", "activity change, positive = activation": "-7.35%"},
      {"smiles": "COc1ccc(C(CC(=O)Nc2ccc(Br)cn2)N2Cc3ccccc3C2=O)cc1", "note": "(stereo unspecified)", "activity change, positive = activation": "-14.8%"},
      {"smiles": "Cc1nn(CC(=O)NCc2ccc(N(C)C)cc2)c(=O)c2nn(-c3ccccc3)c(C)c12", "activity change, positive = activation": "inactive: 5.45%"},
      {"smiles": "CCc1cccc(NS(=O)(=O)c2ccc3c(c2)N(CC(=O)OC)C(=O)CS3)c1", "activity change, positive = activation": "-13.9%"},
      {"smiles": "CC(C)c1ccccc1NC(=O)Cn1cnc2c1c(=O)n(C)c(=O)n2C", "activity change, positive = activation": "-7.54%"},
      {"smiles": "CCCNC(=O)c1c(NC(=O)c2ccccc2)sc2c1CCC(C(C)(C)C)C2", "note": "(stereo unspecified)", "activity change, positive = activation": "inactive: -12.5%"},
      {"smiles": "O=C(Nc1cccc(Cl)c1)C1CCCN(c2ncnc3c2nc2n3CCCCC2)C1", "note": "(stereo unspecified)", "activity change, positive = activation": "inactive: -20.9%"},
      {"smiles": "CC1Cc2cc(S(=O)(=O)CCC(=O)NCc3ccccc3Cl)ccc2N1C(=O)C1CC1", "note": "(stereo unspecified)", "activity change, positive = activation": "-14.6%"},
      {"smiles": "COC(=O)c1ccccc1NC(=O)CN1C(=O)COc2ccc(Cl)cc21", "activity change, positive = activation": "-8.95%"},
      {"smiles": "Cc1ccc2nc(-c3ccc(Cl)s3)c(Nc3ccc4c(c3)OCCO4)n2c1", "Potency": "active: 4.47 µM"},
      {"smiles": "CC(=O)N1CCCc2cc(S(=O)(=O)N3CCC(C(=O)Nc4ccc(C)cc4Cl)CC3)ccc21", "activity change, positive = activation": "inactive: -30.5%"},
      {"smiles": "CCOC(=O)c1c(NC(=O)c2cc(-c3ccc(OC)c(OC)c3)on2)sc(C)c1C", "activity change, positive = activation": "-10.1%"},
      {"smiles": "Cc1c(C)c2cc3c(c(C)c2oc1=O)OCN(CCc1ccccc1)C3", "activity change, positive = activation": "10.6%"},
      {"smiles": "COc1cccc(CNS(=O)(=O)c2ccc3c(c2)CC(C)N3C(=O)C2CCC2)c1", "note": "(stereo unspecified)", "activity change, positive = activation": "-48.7%"},
      {"smiles": "Cc1ccccc1C(=O)Nc1cc2c(cc1N1CCCCC1)n(C)c(=O)n2C", "activity change, positive = activation": "-20.7%"},
      {"smiles": "COc1ccc2c(C)c(CCC(=O)NCc3ccc(C)cc3)c(=O)oc2c1", "activity change, positive = activation": "-8.95%"},
      {"smiles": "COc1cc2c(Oc3ccc(-c4cnc(Nc5ccc(F)cc5)n(C)c4=O)cc3F)ccnc2cc1OCCCN1CCOCC1", "activity change, positive = activation": "inactive: -35.8%"},
      {"smiles": "COC(=O)CN1C(=O)CSc2ccc(S(=O)(=O)Nc3cccc(C)c3)cc21", "activity change, positive = activation": "-24.4%"},
      {"smiles": "Cn1cnc2c(=O)oc3ccc(S(=O)(=O)N4CCN(c5cccc(C(F)(F)F)c5)CC4)cc3c21", "activity change, positive = activation": "-8.91%"},
      {"smiles": "Cc1ccc(-c2nc3c(c(SCC(=O)N(C)c4ccccc4)n2)Cc2c(CO)cnc(C)c2O3)cc1", "activity change, positive = activation": "inactive: -27.9%"}
    ]}
  ]
}
